Key:
[1] = target: T1, IL13Rα2 on cells (recombinant K562-IL13Rα2 cell line, U251-MG cells, PC3 cells) (human, UniProt Q14627 27-380); experiment: flow cytometry cellular binding assay on U251-MG cells, two-step immunostaining (anti-His-tag-PE), absolute MFI against TM concentration, four-parameter fit
T1 construct: whole, on cells; not repeated for the recombinant cell line; also called Interleukin-13 receptor subunit alpha-2
T1 sequence (looked up): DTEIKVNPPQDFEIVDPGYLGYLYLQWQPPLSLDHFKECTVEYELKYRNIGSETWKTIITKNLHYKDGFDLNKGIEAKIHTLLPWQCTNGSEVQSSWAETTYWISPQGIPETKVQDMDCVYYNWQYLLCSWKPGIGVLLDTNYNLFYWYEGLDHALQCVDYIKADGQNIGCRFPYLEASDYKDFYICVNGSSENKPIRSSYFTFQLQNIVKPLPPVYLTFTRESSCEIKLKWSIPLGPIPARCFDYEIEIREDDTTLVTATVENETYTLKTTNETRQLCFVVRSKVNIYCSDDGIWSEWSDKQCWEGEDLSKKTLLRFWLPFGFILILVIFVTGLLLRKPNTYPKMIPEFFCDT
Description: (§1) Cellular binding of IL13-based targeting modules (TM) was tested on recombinant K562-IL13Rα2 cell line (FIG. 2A), recombinant K562-IL13Rα1 cell line (FIG. 2B) and U251-MG cells (FIG. 2C) (derived from a malignant glioblastoma tumor by explant technique). The affinity of TMs was analyzed by FACS in a two-step immunostaining. The TMs were titrated on an AML cell line with recombinant overexpression of IL13Rα2 or IL13Rα1 or U251-MG cells, respectively, and then detected by a mouse anti-His-tag antibody conjugated to phycoerythrin. A dose-response curve was obtained when the geometric mean fluorescence (MFI) was plotted against the TM concentration.
(§2) The data for the cellular binding of IL13-based TMs on the IL13Rα2-expressing AML cell line and U251-MG cells were fitted using a four-parameter model with a variable slope for sigmoidal curves.

[2] = target: T2, IL13Rα1 on recombinant K562-IL13Rα1 cell line (UniProt P78552 22-427); experiment: cell-based or functional assay
T2 sequence (looked up): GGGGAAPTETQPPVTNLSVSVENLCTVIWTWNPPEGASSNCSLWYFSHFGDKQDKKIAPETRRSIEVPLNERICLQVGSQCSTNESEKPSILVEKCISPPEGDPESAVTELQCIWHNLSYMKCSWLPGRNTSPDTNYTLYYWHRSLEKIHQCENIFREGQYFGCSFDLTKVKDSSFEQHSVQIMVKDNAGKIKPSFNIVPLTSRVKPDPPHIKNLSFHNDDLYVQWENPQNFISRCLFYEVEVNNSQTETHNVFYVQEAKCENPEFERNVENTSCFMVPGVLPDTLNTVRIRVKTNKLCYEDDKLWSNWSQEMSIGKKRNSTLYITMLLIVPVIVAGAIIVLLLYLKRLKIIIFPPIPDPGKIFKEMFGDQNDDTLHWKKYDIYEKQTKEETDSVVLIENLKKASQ

[3] = target: T1, IL13Rα2 on cells (recombinant …); experiment: flow cytometry cellular binding assay on recombinant K562-IL13Rα2 cells, two-step immunostaining (anti-His-tag-PE), absolute MFI against TM concentration, four-parameter fit
Description: as §1, §2

[4] = target: T3, soluble recombinant IL13Rα2 ectodomain (human, UniProt Q14627 27-343); experiment: SPR, Biacore X100, 1:1 binding model
T3 construct: extracellular domain
T3 sequence (looked up): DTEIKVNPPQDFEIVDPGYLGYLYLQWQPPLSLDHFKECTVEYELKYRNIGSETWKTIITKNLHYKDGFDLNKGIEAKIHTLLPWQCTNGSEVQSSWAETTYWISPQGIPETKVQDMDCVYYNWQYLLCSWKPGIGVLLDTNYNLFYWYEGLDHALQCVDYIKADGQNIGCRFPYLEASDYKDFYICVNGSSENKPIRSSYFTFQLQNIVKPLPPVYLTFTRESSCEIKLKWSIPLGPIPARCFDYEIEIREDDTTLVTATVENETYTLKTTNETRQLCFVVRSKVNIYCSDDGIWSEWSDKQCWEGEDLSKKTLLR
Description: Data obtained by surface plasmon resonance were fitted with a “1:1 binding” model using the Biacore X100 Evaluation Software (V2.0.1). The following parameters were calculated from this model: association rate (kₐ), dissociation rate (kd) and the dissociation constant at equilibrium (KD).

B1: targeting module comprising IL13wt (ligand, not shown: small tags and cut ends)
chain (part 1 of 2): not shown
chain (part 2 of 2): KPLPEVTDEYHHHHHHHH
notes: only that the His tag is at the C-terminus; also called TM based on IL13 wt
- EC50 [1]: 0.977 nM
- EC50 of switchable CAR T cell-dependent lysis of K562-IL13Rα1 [2]: 0.516 nM
- EC50 [3]: 1.93 nM
- Kd [4]: 14 nM
- koff [4]: 0.00074 s⁻¹
- kon [4]: 54000 M⁻¹ s⁻¹

From patent US20250302875A1 (AVENCELL EUROPE, published 2025)
